# From the supplement of paper PMC8728848
# Some of the results follow.
# B1: Cohesin-marm-DC-ASGPR-CRD (protein)
# chain: LDITSHHHHHHDDLDAVRIKVDTVNAKPGDTVRIPVRFSGIPSKGIANCDFVYSYDPNVLEIIEIEPGDIIVDPNPDKSFDTAVYPDRKIIVFLFAEDSGTGAYAITKDGVFATIVAKVKEGAPNGLSVIKFVEVGGFANNDLVEQKTQFFDGGVNVGDTTEPATPTTPVTTPTTTDDLDAASCPINWVEHQGSCYWFSRSGKTWPEAERYCQLENTHLVVINSREEQNFVQAHLGSAYTWMGLSDPEGVWKWVDGTDYSSGFQNWKPGQPDDWQGHGLGGGEDCAHFHPDGRWNDDVCQRSYHWVCEAGLTQASQDSH
# Legend:
# Assay in all cases: glycan array binding signal (z-score within array); higher = stronger binding
# Details in all cases: glycan notation: IUPAC condensed, linker removed
# Glc(b1-6)Glc = biological target: Glc(b1-6)Glc
# Method in brief: (§1)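 From the Consortium for Functional Glycomics database, 3228 arrays were curated, keeping only those whose protein sequence was available. Binding is given as a within-array Z-score averaged across arrays sharing a protein sequence and across linkers. Negative Z-scores can be read as non-binding.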
# GlcA(b1-3)Gal = biological target: GlcA(b1-3)Gal
# Method in brief: as §1
# GlcA(b1-3)GlcNAc = biological target: GlcA(b1-3)GlcNAc
# Method in brief: as §1
# GlcA(b1-6)Gal = biological target: GlcA(b1-6)Gal
# Method in brief: as §1
# [1] = biological target: GlcA3S(b1-3)Gal(b1-4)GlcNAc(b1-2)Man
# Method in brief: as §1
# [2] = biological target: GlcA3S(b1-3)Gal(b1-4)GlcNAc(b1-3)Gal(b1-4)Glc
# Method in brief: as §1
# [3] = biological target: GlcNAc(a1-3)Gal(b1-4)GlcNAc
# Method in brief: as §1
# [4] = biological target: GlcNAc(a1-4)Gal(b1-3)GlcNAc
# Method in brief: as §1
# [5] = biological target: GlcNAc(a1-4)Gal(b1-4)GalNAc
# Method in brief: as §1
# [6] = biological target: GlcNAc(a1-4)Gal(b1-4)GlcNAc
# Method in brief: as §1
# [7] = biological target: GlcNAc(a1-4)Gal(b1-4)GlcNAc(b1-3)Gal(b1-4)Glc
# Method in brief: as §1
# [8] = biological target: GlcNAc(a1-4)Gal(b1-4)GlcNAc(b1-3)Gal(b1-4)GlcNAc
# Method in brief: as §1
# [9] = biological target: GlcNAc(a1-4)Gal(b1-4)GlcNAc(b1-3)Gal(b1-4)GlcNAc(b1-3)Gal(b1-4)GlcNAc
# Method in brief: as §1
# [10] = biological target: GlcNAc(a1-4)Gal(b1-4)GlcNAc(b1-3)Gal(b1-4)[Fuc(a1-3)]GlcNAc(b1-3)Gal(b1-4)[Fuc(a1-3)]GlcNAc
# Method in brief: as §1
# [11] = biological target: GlcNAc(a1-6)Gal(b1-4)GlcNAc
# Method in brief: as §1
# [12] = biological target: GlcNAc(b1-2)Gal(b1-3)GalNAc
# Method in brief: as §1
# [13] = biological target: GlcNAc(b1-2)Man(a1-3)[GlcNAc(b1-2)Man(a1-6)]Man(b1-4)GlcNAc(b1-4)GlcNAc
# Method in brief: as §1
# [14] = biological target: GlcNAc(b1-2)Man(a1-3)[GlcNAc(b1-2)Man(a1-6)]Man(b1-4)GlcNAc(b1-4)[Fuc(a1-6)]GlcNAc
# Method in brief: as §1
# [15] = biological target: GlcNAc(b1-2)Man(a1-3)[GlcNAc(b1-4)][GlcNAc(b1-2)Man(a1-6)]Man(b1-4)GlcNAc(b1-4)GlcNAc
# Method in brief: as §1
# [16] = biological target: GlcNAc(b1-2)Man(a1-3)[GlcNAc(b1-4)][GlcNAc(b1-2)Man(a1-6)]Man(b1-4)GlcNAc(b1-4)[Fuc(a1-6)]GlcNAc
# Method in brief: as §1
# [17] = biological target: GlcNAc(b1-2)[GlcNAc(b1-4)]Man(a1-3)[GlcNAc(b1-2)Man(a1-6)]Man(b1-4)GlcNAc(b1-4)GlcNAc
# Method in brief: as §1
# [18] = biological target: GlcNAc(b1-2)[GlcNAc(b1-4)]Man(a1-3)[GlcNAc(b1-4)][GlcNAc(b1-2)Man(a1-6)]Man(b1-4)GlcNAc(b1-4)GlcNAc
# Method in brief: as §1
# [19] = biological target: GlcNAc(b1-2)[GlcNAc(b1-4)]Man(a1-3)[GlcNAc(b1-4)][GlcNAc(b1-2)[GlcNAc(b1-6)]Man(a1-6)]Man(b1-4)GlcNAc(b1-4)GlcNAc
# Method in brief: as §1
# [20] = biological target: GlcNAc(b1-2)[GlcNAc(b1-4)]Man(a1-3)[GlcNAc(b1-4)][GlcNAc(b1-2)[GlcNAc(b1-6)]Man(a1-6)]Man(b1-4)GlcNAc(b1-4)[Fuc(a1-6)]GlcNAc
# Method in brief: as §1
# [21] = biological target: GlcNAc(b1-2)[GlcNAc(b1-6)]Man(a1-6)[GlcNAc(b1-2)Man(a1-3)]Man(b1-4)GlcNAc(b1-4)GlcNAc
# Method in brief: as §1
# [22] = biological target: GlcNAc(b1-2)[GlcNAc(b1-6)]Man(a1-6)[GlcNAc(b1-2)Man(a1-3)]Man(b1-4)GlcNAc(b1-4)[Fuc(a1-6)]GlcNAc
# Method in brief: as §1
# [23] = biological target: GlcNAc(b1-2)[GlcNAc(b1-6)]Man(a1-6)[GlcNAc(b1-4)][GlcNAc(b1-2)Man(a1-3)]Man(b1-4)GlcNAc(b1-4)GlcNAc
# Method in brief: as §1
# GlcNAc(b1-3)Fuc = biological target: GlcNAc(b1-3)Fuc
# Method in brief: as §1
# GlcNAc(b1-3)Gal = biological target: GlcNAc(b1-3)Gal
# Method in brief: as §1
# [24] = biological target: GlcNAc(b1-3)Gal(b1-3)GalNAc
# Method in brief: as §1
# GlcNAc(b1-3)Gal(b1-4)Glc = biological target: GlcNAc(b1-3)Gal(b1-4)Glc
# Method in brief: as §1
# [25] = biological target: GlcNAc(b1-3)Gal(b1-4)GlcNAc
# Method in brief: as §1
# [26] = biological target: GlcNAc(b1-3)Gal(b1-4)GlcNAc(b1-2)Man(a1-3)[GlcNAc(b1-3)Gal(b1-4)GlcNAc(b1-2)Man(a1-6)]Man(b1-4)GlcNAc(b1-4)GlcNAc
# Method in brief: as §1
# [27] = biological target: GlcNAc(b1-3)Gal(b1-4)GlcNAc(b1-2)Man(a1-3)[GlcNAc(b1-3)Gal(b1-4)GlcNAc(b1-2)Man(a1-6)]Man(b1-4)GlcNAc(b1-4)[Fuc(a1-6)]GlcNAc
# Method in brief: as §1
# [28] = biological target: GlcNAc(b1-3)Gal(b1-4)GlcNAc(b1-2)[GlcNAc(b1-3)Gal(b1-4)GlcNAc(b1-6)]Man(a1-6)[GlcNAc(b1-3)Gal(b1-4)GlcNAc(b1-2)Man(a1-3)]Man(b1-4)GlcNAc(b1-4)GlcNAc
# Method in brief: as §1
# [29] = biological target: GlcNAc(b1-3)Gal(b1-4)GlcNAc(b1-3)Gal(b1-4)GlcNAc
# Method in brief: as §1
# [30] = biological target: GlcNAc(b1-3)Gal(b1-4)GlcNAc(b1-3)Gal(b1-4)GlcNAc(b1-2)Man(a1-3)[GlcNAc(b1-3)Gal(b1-4)GlcNAc(b1-3)Gal(b1-4)GlcNAc(b1-2)Man(a1-6)]Man(b1-4)GlcNAc(b1-4)GlcNAc
# Method in brief: as §1
binder,measurement,setting,value
B1,glycan array binding signal (z-score),Glc(b1-6)Glc,-0.337
same,glycan array binding signal (z-score),GlcA(b1-3)Gal,-0.438
same,glycan array binding signal (z-score),GlcA(b1-3)GlcNAc,-0.411
same,glycan array binding signal (z-score),GlcA(b1-6)Gal,-0.392
same,glycan array binding signal (z-score),[1],-0.452
same,glycan array binding signal (z-score),[2],-0.459
same,glycan array binding signal (z-score),[3],-0.452
same,glycan array binding signal (z-score),[4],-0.446
same,glycan array binding signal (z-score),[5],-0.441
same,glycan array binding signal (z-score),[6],-0.446
same,glycan array binding signal (z-score),[7],-0.446
same,glycan array binding signal (z-score),[8],-0.441
same,glycan array binding signal (z-score),[9],-0.453
same,glycan array binding signal (z-score),[10],-0.371
same,glycan array binding signal (z-score),[11],-0.429
same,glycan array binding signal (z-score),[12],-0.437
same,glycan array binding signal (z-score),[13],-0.449
same,glycan array binding signal (z-score),[14],-0.436
same,glycan array binding signal (z-score),[15],-0.444
same,glycan array binding signal (z-score),[16],-0.453
same,glycan array binding signal (z-score),[17],-0.453
same,glycan array binding signal (z-score),[18],-0.436
same,glycan array binding signal (z-score),[19],-0.456
same,glycan array binding signal (z-score),[20],-0.448
same,glycan array binding signal (z-score),[21],-0.446
same,glycan array binding signal (z-score),[22],-0.461
same,glycan array binding signal (z-score),[23],-0.429
same,glycan array binding signal (z-score),GlcNAc(b1-3)Fuc,-0.428
same,glycan array binding signal (z-score),GlcNAc(b1-3)Gal,-0.448
same,glycan array binding signal (z-score),[24],-0.404
same,glycan array binding signal (z-score),GlcNAc(b1-3)Gal(b1-4)Glc,-0.44
same,glycan array binding signal (z-score),[25],-0.443
same,glycan array binding signal (z-score),[26],-0.454
same,glycan array binding signal (z-score),[27],-0.373
same,glycan array binding signal (z-score),[28],-0.195
same,glycan array binding signal (z-score),[29],-0.456
same,glycan array binding signal (z-score),[30],-0.41
